Hit rate of the full screen: of about 150,000 compounds, about 540 (0.36%) showed an effect of 50% or more. Some of the results follow.
System: Plasmodium falciparum
Test: Primary screen in NF54 nanoGlo assay, in single point, at 2uM, 72h; a lower Z score goes with more inhibition
Format: functional, Erythrocyte
Settings: timepoint 72 hour

SMILES	% Inhibition	Z score
O=C(CN1CCN(c2ncnc3sccc23)CC1)NC[C@H]1CCCO1	-4%	0.43
Cc1ccnc(Oc2cc(NC(=O)C3(CN)CCCC3)ccc2C)c1	-16%	1.76
C=C(C)C1OCCC1CNC(=O)N1CCC(c2c[nH]c3ccccc23)CC1 (stereo not drawn)	1%	-0.22
O=C(NCC1CCN1C1CC1)NC[C@@H]1C[C@H](c2ccccc2)CO1 (stereo partly drawn)	4%	-0.53
C=CCN(Cc1nc(-c2ccccn2)no1)[C@H]1CCS(=O)(=O)C1	-2%	0.36
C[C@@H](CNC(=O)c1nn(-c2ccc(F)cc2)cc1O)Cn1ccnc1	-2%	0.21
COc1ccc(CCN(Cc2ccco2)C(=O)CN(C(=O)C(C)C)C(C)(C)C)cc1OC	-10%	0.94
CCCN(C(=O)c1cccc[n+]1[O-])[C@@H](C)c1cc2ccccc2o1	-6%	0.73
COCCNC(=O)N[C@@H](C)Cc1cc2ccccc2o1	-1%	0.21
COc1ccc2c(N[C@H]3CCO[C@@H]3c3ccc(=O)[nH]c3)ncnc2c1F	-4%	0.81
CCOc1cc(CN[C@@H](CC)c2nc(C)no2)c(Cl)cc1OC(C)C	-11%	1.48
O=C(c1scc2c1OCCO2)N1CCCO[C@@H](Cn2cccn2)C1	-4%	0.52
O=C(CN1CCCN(c2ccc(C(F)(F)F)cn2)CC1)Nc1cccc(F)c1	-5%	0.92
CCCn1nnc2cc(S(=O)(=O)N3CCCC[C@H]3C(=O)NCc3ccccc3OCC)ccc21	-39%	3.48
Cc1cccc(C(=O)N2CCCCCCNC(=O)CC2)c1	-19%	2.53
CCCc1noc([C@H]2CC(=O)N(c3ccccc3)C2)n1	18%	-2.39
CC1(C)[C@@H](c2ccccc2)[C@@H]1c1nc(-c2ccc(N)nc2)no1	-1%	0.14
Nc1n[nH]c2ccc(-c3ccc(C(=O)NCC[C@H]4CCOC4)cc3)cc12	-16%	1.69
C[C@@](O)(C(=O)NCc1ccc(OC(F)F)cc1)C1CC1	4%	-0.81
Cc1noc(C)c1CNC(=O)[C@H](N)CC(C)C	-2%	0.2
Cc1ccc(NC(=O)c2ccc(C(=O)c3ccccc3)o2)cc1	14%	-1.72
CO[C@H]1CCN(S(=O)(=O)N2CCCCCC2)C1	-2%	0.31
CCC[C@H](C)C1(CC)C(O)=NC(=Nc2ccc(Cl)cc2)N=C1O (stereo partly drawn)	2%	-0.23
C#CCN(C(=O)NC1CCN(c2ccccc2S(=O)(=O)CC)CC1)C1CCCCC1	-9%	1.3
CN(C)CC(C)(C)CNS(=O)(=O)c1ccc(F)cc1C#N	-2%	0.26
CC[C@]1(O)CCN(c2nc(OC)cc(OC)n2)C[C@@H]1O	-4%	0.48
C[C@H]1CCCCN(C(=O)c2c[nH]c(C(F)(F)F)c2)C1	14%	-1.67

SMILES	% Inhibition	Z score
Cn1cc(-c2ccc3c(c2)OCC[C@@H]2CC[C@H](O)[C@@H](CNC(=O)[C@@H]4C[C@@H](CN4C4CCC(F)(F)CC4)NC3=O)O2)cn1	9%	-1.42
c1ccc(-n2cc(CN3CCCc4ccccc43)cn2)cc1	6%	-0.91
FC1(F)Oc2ccc(-c3ccc(-n4ccnc4)nn3)cc2O1	3%	-0.39
CCc1ccc(CC)c(NS(=O)(=O)c2c(C)cnn2C)c1	10%	-1.62
CCN(CC)CC1(NC(=O)c2ccc(CO)cc2)CC1	13%	-1.77
Cc1c(-c2ccccc2)[nH]c2c(CNC(=O)CN3CCCC3=O)cc(Cl)cc12	-2%	0.26
CC(C)c1ccc([C@H](C)NC(=O)N(CCO)Cc2nccn2C)cc1	-16%	2.93
Cc1cc(CCNC(=O)[C@H]2CCOC2)nn1C	-8%	1.42
Cc1ccc(-c2noc(CCNC(=O)[C@@H]3CCCCn4nnnc43)n2)cc1	-10%	1.45
FC(F)c1cnc(N2CCC[C@H]2COc2ccccc2)nc1	-14%	2.34
c1cc(CNCc2cc[nH]n2)c2[nH]ncc2c1	11%	-1.46
C[C@H](O)c1cccc(N2CCc3c(CC(N)=O)cccc3C2)n1	-9%	1.3
Cc1ccccc1CNC(=O)CCNc1c(-c2cccc(F)c2)nc2cnccn12	-15%	2.17
COc1ccc(-c2nc(C)c3c(n2)N(C(C)C)C(=O)C3)cc1	1%	-0.17
Cc1ccc(-c2cc(C(=O)O)n(C)c2)cc1	-18%	1.59
COc1ccc2nc(O)c(-c3nc4c(C)cccn4c3Nc3ccc(C)cc3C)cc2c1	-3%	0.43
CNC(=NCc1ccc2c(c1)CCC2)NC	-1%	0.18
CCCNC(=O)CCC(=O)N1CCC(c2ccccn2)CC1	17%	-2.19
C[C@@]12CCC3C[C@@]1(C(=O)Nc1cccnc1)OC[C@@]32C	-16%	2.01
COc1ccc(Cc2ncnn2CCO)c(OC)c1	0%	0.09
CCN1c2cc(C)ccc2-n2cccc2C12CCN(C(=O)Nc1cc(F)ccc1F)CC2	-7%	0.93
O=C(Cn1c(=O)c2cc(C3CC3)nn2c2ncccc21)Nc1ccccc1	-15%	1.62
CCc1nnsc1C(=O)N[C@H]1CCOc2ccccc21	-3%	0.44
COc1cc(C(=O)Nc2cnoc2C(C)C)on1	18%	-2.12
CN1C(=O)C[C@H](NS(=O)(=O)Cc2ccc(F)cc2C#N)C1=O	-6%	1.01
Cc1nn(C)cc1CN(C)c1ccc(C(C)C)nn1	10%	-1.97
Cc1nnsc1CN(C)C(=O)c1ccc(F)cc1	-18%	2.66
